The record followed here is article PMC6919601, “Identification of Plasmodium dipeptidyl aminopeptidase allosteric inhibitors by high throughput screening” (PLoS ONE, 2019).

Structures are written as SMILES. Among all 110,000 compounds or so, about 230 (0.21%) showed an effect of 50% or more. The list shows a part of the results.
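Also: 30 min substrate incubation versus DMSO and 10 µM JCP410 controls.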

The target in the assay is DPAP1 (Plasmodium falciparum, UniProt Q8IIJ9). The assay can be described thus: primary screen, percent inhibition; read by cleavage of a fluorogenic dipeptide substrate; higher = more effect of the substance. Also noted: species or system P. falciparum D10 trophozoite lysates; single well.
DPAP1, sequence (Q8IIJ9 whole entry, looked up): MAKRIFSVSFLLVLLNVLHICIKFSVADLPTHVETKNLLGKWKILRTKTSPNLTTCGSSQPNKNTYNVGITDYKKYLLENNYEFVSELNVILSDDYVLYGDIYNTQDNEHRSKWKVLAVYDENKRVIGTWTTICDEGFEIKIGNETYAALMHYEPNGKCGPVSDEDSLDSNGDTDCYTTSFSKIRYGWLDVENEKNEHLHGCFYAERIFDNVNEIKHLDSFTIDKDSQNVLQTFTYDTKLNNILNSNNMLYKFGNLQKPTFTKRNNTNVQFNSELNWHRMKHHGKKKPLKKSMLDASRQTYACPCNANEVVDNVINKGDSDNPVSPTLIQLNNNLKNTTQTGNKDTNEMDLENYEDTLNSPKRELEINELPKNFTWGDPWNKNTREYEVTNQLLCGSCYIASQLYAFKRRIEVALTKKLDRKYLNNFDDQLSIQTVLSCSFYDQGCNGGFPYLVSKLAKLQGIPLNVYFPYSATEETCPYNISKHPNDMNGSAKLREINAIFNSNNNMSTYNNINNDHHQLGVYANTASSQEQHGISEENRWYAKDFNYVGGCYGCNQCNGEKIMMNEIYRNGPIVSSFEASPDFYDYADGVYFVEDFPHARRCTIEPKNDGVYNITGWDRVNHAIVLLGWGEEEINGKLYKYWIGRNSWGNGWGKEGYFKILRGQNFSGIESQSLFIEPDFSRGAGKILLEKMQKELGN
For the molecule `Cc1ccc(NC2=NC(=O)CC(C(=O)Nc3ccc(C)c(C)c3)N2)cc1` (stereo not shown), the “% Inhibition @ 10 uM” value is listed as -0.884%.
As to `COc1cccc(C(CC(=O)Nc2sc3c(c2C#N)CCCC3)NC(=O)c2ccccc2)c1` (stereo not shown), the “% Inhibition @ 10 uM” value is recorded as -4.7%.
Next, `CC(=O)c1ccc(Sc2ccc(Cl)cc2C(=O)O)cc1`: -8.26%; `CC1CCC(N[C@H]2CCCCNC2=O)CC1` (stereo partly shown): -8.99%.
As to `Cc1ccc(OCCN2CCN(C(=O)CSc3nc4ccccc4nc3N3CCCC3)CC2)cc1`, the “% Inhibition @ 10 uM” value was -1.72%.
As for `COc1cc2c(cc1OC)C(C(=O)N1CCOCC1)C(c1cccs1)N(C)C2=O` (stereo not shown), the “% Inhibition @ 10 uM” value worked out at 1.83%.
Next, `O=C(c1cc(-c2ccc(Cl)cc2)n[nH]1)N1CCn2c1nc1ccccc12`: 3.47%; `O=C(NC(=O)c1cccc(C(F)(F)F)c1)OC1CCS(=O)(=O)C1` (stereo not shown): 1.57%; `CCN1CCC2(CC1)OC(=O)C(C)=C2C(=O)NCc1cccs1`: -3.25%.
Next, `C=CCNc1cc(-c2ccccc2)nc2nc3ccccc3n12`: 6.74%; `CC1=C(c2ccc(C)c(C)c2)S(=O)(=O)N=C1N1CCC(C(=O)NCc2ccccc2Cl)CC1`: 6.31%.
In the case of `Cc1ccc(CCNC(=O)C2CCCN(S(=O)(=O)c3ccc4nc(O)ccc4c3)C2)cc1` (stereo not shown) it was -3.43%; in that of `CCC(C)Cn1c(C(C)O)nc2ccccc21` (stereo not shown), -4.02%; in that of `O=C(Nc1ccc(Br)cc1)c1cc(S(=O)(=O)Nc2ccccn2)ccc1Cl`, -0.0217%.
With `c1ccc(CCN2CCC(NCC3CCCO3)CC2)cc1` (stereo not shown), the “% Inhibition @ 10 uM” value was -5.11%.
Next, `Cc1ccc(-c2cc(C(F)(F)F)c3c(N)c(C(N)=O)sc3n2)cc1`: 33.4%.
In the case of `COc1ccc(/C=C2\N=c3ccn(Cc4ccccc4)c(=O)c3=C2O)cc1` it was 4.74%; in that of `Cc1ccsc1C(=O)N1CCCc2ccccc21`, 5.53%.
As to `Cc1scc(CN2CCc3ccccc3C2)c1C`, the “% Inhibition @ 10 uM” value is given as -0.999%.
Next, `Brc1ccc(CN2CCN(Cc3ccncc3)CC2)cc1`: 4%; `Cc1ccc2c(c1)C(=O)OC(C(=O)Nc1cc(C)on1)C2` (stereo not shown): -1.52%; `O=C(CN1CCCC1)Nc1c2c(nc3c1CCC3)CCCC2`: 1.54%.
Regarding `COc1ccccc1S(=O)(=O)Cc1ccc(C(=O)NCc2ccccc2)o1`, the “% Inhibition @ 10 uM” value was -1.28%.
In the case of `CC(C)OP(=O)(CN1CCOCC1)OC(C)C` it was -4.61%; in that of `O=C1C=C(Nc2cc(Cl)cc(Cl)c2)CC(c2ccco2)C1` (stereo not shown), -5.72%.
In the case of `CCOc1ccccc1NC(=O)c1ccc(COc2ccccc2OC)cc1` it was 2.44%.
Next, `Cc1ccc(CNc2nc3c(c(=O)[nH]c(=O)n3C)n2CC(O)CO)cc1` (stereo not shown): 3.66%; `COC(=O)c1cc(-c2ccc(C=C3C(=O)OC(C)(C)OC3=O)o2)ccc1Cl`: -1.6%.
Regarding `Cc1cc(OCC(=O)Nc2cccc3c2CCCC3)ccc1Br`, the “% Inhibition @ 10 uM” value worked out at 1.04%.
Next, `CCN1CCN(CCNC(=O)C2CCCN(Cc3nc(-c4cccc(Cl)c4)oc3C)C2)CC1` (stereo not shown): -2.85%; `COCC(=O)n1nc(-c2ccc(Cl)cc2)nc1NCc1ccco1`: -1.11%.
In the case of `Cc1cccc(CN2CCN(Cc3cccnc3)CC2)c1` it was -6.74%; in that of `CC(C)CC(C(=O)NCC#N)c1cccc(-c2cccc(-c3csc(N=C(N)N)n3)c2)c1` (stereo not shown), -3.04%; in that of `COc1ccc(N(CC(=O)N(C)C)S(=O)(=O)c2ccc(C)cc2)cc1Cl`, -5.26%.
In the case of `CN(C)CCNC(=O)C1CCCN(S(=O)(=O)N2CCOCC2)C1` (stereo not shown) it was 1.17%; in that of `N#CCNC(=O)C(CC1CCCCC1)C(=O)Nc1ccc(Oc2ccccc2)cc1` (stereo not shown), -1.83%.
Turning to `COC(=O)c1ccc(C2c3c(oc4ccccc4c3=O)C(=O)N2c2nc(C)c(C)s2)cc1` (stereo not shown), the “% Inhibition @ 10 uM” value stood at 2.16%.
In the case of `O=C(COc1ccc(Cl)cc1)Nc1ccc(NC(=O)COc2ccc(Cl)cc2)cc1` it was -1.32%.
As for `CN1CCN(C(=O)c2cccc(Cl)c2)CC1`, the “% Inhibition @ 10 uM” value is -3.82%.
Consider `COc1ccc(C2=NOC(C(=O)N3CC4(C)CC3CC(C)(C)C4)C2)cc1OC` (stereo not shown), for which the “% Inhibition @ 10 uM” value is given as -0.644%.
As for `Cc1ccc(-c2cc(C(=O)Nc3cccnc3)c3ccccc3n2)s1`, the “% Inhibition @ 10 uM” value is listed as 1.08%.
In the case of `Fc1ccc([C@@H]2Nc3c(F)cccc3[C@@H]3C=CC[C@@H]32)cc1` it was -3.19%.
In the case of `CCN(CC)C(=O)Oc1cc(=O)n2c3c(cccc13)CCC2`, the “% Inhibition @ 10 uM” value came to 1.67%.
With `Cc1cccc(C)c1NC(=O)c1ccco1`, the “% Inhibition @ 10 uM” value is -0.294%.
In the case of `O=C(NCCCN1CCOCC1)C1(c2ccccc2)CCOCC1` it was 1.15%; in that of `COc1ccc(CNc2nc(-c3ccco3)nn2C(=O)c2cc(OC)c(OC)c(OC)c2)cc1`, 0.248%.
On to `COc1cc(C(=O)NCCOc2cc(C)cc(C)c2)c(Br)c(OC)c1OC`, for which the “% Inhibition @ 10 uM” value is given as -1.26%.
In the case of `Cc1cccc(NC(=O)c2ccccc2Cl)c1C` it was -5.11%; in that of `COc1ccc(-c2ccc(CCC(=O)O)o2)cc1`, 4.74%; in that of `Clc1ccc(-n2ncc3c(N4CCCCCC4)ncnc32)cc1`, 2.07%.
Consider `CC(=O)N1CCN(Cc2cc(=O)oc3cc(C)ccc23)CC1`, for which the “% Inhibition @ 10 uM” value is 2.29%.
Next, `O=C(Nc1ccc(NC(=O)C2CC3CCC2C3)cc1)C1CC2CCC1C2` (stereo not shown): -5.23%; `O=C1c2ccccc2CN1CCSC(=S)N1CCCC1`: 0.108%.
As for `O=C(O)c1ccc(-n2[nH]c(=O)ccc2=O)cc1`, the “% Inhibition @ 10 uM” value was -0.902%.
In the case of `Cc1ccc(NS(=O)(=O)c2ccc(NC(=O)c3ccccc3C(=O)O)cc2)cc1C` it was 2.3%; in that of `CC1(C)C[C@@H](O)CC2(C1)C[C@]1(C)CC(O)[C@H]2C(C)(C)C1` (stereo partly shown), -1.44%.
For the molecule `COCCNc1nc2c(S(=O)(=O)c3cc(C)ccc3C)nnn2c2ccsc12`, the “% Inhibition @ 10 uM” value is recorded as 0.857%.
In the case of `CC1=C(C(=O)NCCN2CCN(C)CC2)C2(CCCCC2)OC1=O` it was 4.2%; in that of `CC1(C)CC(=O)c2cnc(NC(=O)CSc3ccc(Cl)cc3)nc2C1`, -1.18%.
Consider `Cc1ccc(CN2c3ccsc3C(O)=C(/C=N/C(C)C)S2(=O)=O)cc1`, for which the “% Inhibition @ 10 uM” value turned out to be 0.711%.
In the case of `CC(C)(O)C#Cc1ccc(C2C3=C(CC(C)(C)CC3=O)OC3=C2C(=O)CC(C)(C)C3)cc1` it was 1.96%.
In the case of `CCOc1ccccc1N1CCN(C(=O)c2cccc(Br)c2)CC1` it was -1.79%; in that of `NC(=O)CCCc1c[nH]c2ccccc12`, 3.34%.
`Cc1ccc2cnn(CC(=O)N3CCCCC3)c2c1`: the “% Inhibition @ 10 uM” value is -2.88%.
Regarding `COc1ccc(CCNC2CCCCC2)cc1OC`, the “% Inhibition @ 10 uM” value is listed as 1.71%.
On to `CC(Cc1ccccc1)NC(=O)c1c[nH]cn1` (stereo not shown), for which the “% Inhibition @ 10 uM” value was -3.8%.
Turning to `COc1ccc(/C=C2\CN(C(C)C)C/C(=C\c3ccc(OC)c(OC)c3OC)C2=O)c(OC)c1OC`, the “% Inhibition @ 10 uM” value is -3.79%.
Next, `O=C(c1cc2ccccc2oc1=O)N1CCSC1c1ccc(Br)cc1` (stereo not shown): 2.22%; `COc1cccc(-c2ccc(C#N)c(SCC(=O)Nc3cccc(NC(C)=O)c3)n2)c1`: 4.28%; `O=S(=O)(NCCCc1ccccc1)c1ccc(-c2ccc(O)nn2)o1`: -0.171%.
Next, `O=C(NCc1nc2ccccc2[nH]1)c1ccccc1Cl`: 4.1%.
Next, `O=C(NCC1CCCO1)C1C2C=CC3(CN(Cc4cccs4)C(=O)C13)O2` (stereo not shown): -4.06%.
As to `CC1=C(C(=O)Nc2ccccc2)C(c2ccc(Br)cc2)NC(=O)N1` (stereo not shown), the “% Inhibition @ 10 uM” value is reported as -1.8%.
With `CC(=O)N1CCc2c(sc3nc(SCc4ccc(F)cc4)n(CC4CCCO4)c(=O)c23)C1` (stereo not shown), the “% Inhibition @ 10 uM” value stood at 1.02%.
With `Nc1c(Cc2ccccc2)ccc2c1C(=O)c1ccccc1C2=O`, the “% Inhibition @ 10 uM” value is recorded as 4.16%.
In the case of `COc1cc(C2c3c(oc4ccccc4c3=O)C(=O)N2CCCN2CCOCC2)ccc1O` (stereo not shown) it was 0.628%; in that of `COc1ccccc1-c1cc(C2CC2)nc(N)c1C#N`, -0.446%; in that of `O=C(NCc1ccccn1)Nc1ccc(Cl)c(Cl)c1`, -4.39%.
Regarding `O=C(Nc1ccccc1C(F)(F)F)c1cccs1`, the “% Inhibition @ 10 uM” value is -1.22%.
Turning to `O=C(Cn1ncc2c3ccccc3n(Cc3ccc(F)cc3)c2c1=O)NC1CCCC1`, the “% Inhibition @ 10 uM” value was 1.8%.
In the case of `Cc1ccc(-c2c(C#N)c(N)nc3c2CCCCC3)s1` it was -3.14%; in that of `O=C1CC(c2ccccc2)CC(=O)C1=CNCc1ccc2c(c1)OCO2` (stereo not shown), -3.63%.
For `Cc1cc(N2CCOCC2)ccc1/C=C1\NC(=O)N(CC(=O)Nc2ccccc2C)C1=O`, the “% Inhibition @ 10 uM” value is given as -4.43%.
In the case of `Cc1cccc(N2CCN(C(=O)c3ccccc3[N+](=O)[O-])CC2)c1C` it was 3.01%; in that of `Cc1ccc(-c2nnc3s/c(=C\c4ccc(C)o4)c(=O)n23)cc1`, -1.33%; in that of `Cc1nn(-c2ccccc2)c(-n2cccc2)c1C(=O)N(C)Cc1ccccc1`, 0.137%.
As to `CCCCCCOC(=O)NCC(O)c1ccccc1` (stereo not shown), the “% Inhibition @ 10 uM” value is given as -1.25%.
Next, `COc1cc(NC(=O)c2ccccc2)c(Cl)cc1NC(=O)c1ccc(N(C)C)cc1`: -3.98%.
Turning to `COc1ccccc1N1CCN(C(=O)c2ccccc2C(=O)O)CC1`, the “% Inhibition @ 10 uM” value is -3.04%.
For `COc1ccc(OC)c(-c2csc(-c3ccccn3)n2)c1`, the “% Inhibition @ 10 uM” value came out at 1%.
In the case of `CC1=NOC(=O)/C1=C/c1ccc(-c2ccc(Cl)c(Cl)c2)o1` it was -2.87%; in that of `COCCCNC(=O)c1ccc2c(c1)ncn2-c1ccc(F)c(F)c1`, -3.93%; in that of `COc1ccc(S(=O)(=O)NCC(=O)Nc2ccc(Cl)cc2C)cc1OC`, -16%.
In the case of `N#CCNC(=O)[C@H](CS(=O)(=O)Cc1ccccc1OC(F)F)NC(=O)c1cccnc1O` it was -10.7%; in that of `O=c1cccc2n1C[C@H]1C[C@@H]2CN(Cc2ccc(F)cc2F)C1`, -5.48%; in that of `Cc1cc(Br)ccc1NC(=O)c1cccc2ccccc12`, 0.705%.
On to `CC(C)C[C@H](NC(=O)c1cc(-c2ccncc2)c(Cl)s1)C(=O)NCC#N`, for which the “% Inhibition @ 10 uM” value is listed as 4.33%.
As for `CS(=O)(=O)c1ccc2nc(NC(=O)c3nc(SCc4ccccc4)ncc3Cl)sc2c1`, the “% Inhibition @ 10 uM” value worked out at 0.548%.
As to `Cc1nc2c(cc(O)c3ccsc32)s1`, the “% Inhibition @ 10 uM” value is -11.1%.
In the case of `O=C(CC(c1ccccc1O)N1CCCCC1)N1CCCCC1` (stereo not shown) it was -7.35%.
